Several values for one entry are separate records, joined by “and”; a condition that tells them apart may be missing. Identical values can stand only once. The whole screen tested about 110,000 compounds, of which about 230 (0.21%) showed an effect of 50% or more. Some of the results follow.
target: DPAP1 (Plasmodium falciparum, UniProt Q8IIJ9); assay: primary screen, percent inhibition; read by cleavage of a fluorogenic dipeptide substrate; higher = more effect of the substance; parameters: species or system P. falciparum D10 trophozoite lysates; single well
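Also: 30 min substrate incubation versus DMSO and 10 µM JCP410 controls.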

Chain of DPAP1 (Q8IIJ9 whole entry, looked up): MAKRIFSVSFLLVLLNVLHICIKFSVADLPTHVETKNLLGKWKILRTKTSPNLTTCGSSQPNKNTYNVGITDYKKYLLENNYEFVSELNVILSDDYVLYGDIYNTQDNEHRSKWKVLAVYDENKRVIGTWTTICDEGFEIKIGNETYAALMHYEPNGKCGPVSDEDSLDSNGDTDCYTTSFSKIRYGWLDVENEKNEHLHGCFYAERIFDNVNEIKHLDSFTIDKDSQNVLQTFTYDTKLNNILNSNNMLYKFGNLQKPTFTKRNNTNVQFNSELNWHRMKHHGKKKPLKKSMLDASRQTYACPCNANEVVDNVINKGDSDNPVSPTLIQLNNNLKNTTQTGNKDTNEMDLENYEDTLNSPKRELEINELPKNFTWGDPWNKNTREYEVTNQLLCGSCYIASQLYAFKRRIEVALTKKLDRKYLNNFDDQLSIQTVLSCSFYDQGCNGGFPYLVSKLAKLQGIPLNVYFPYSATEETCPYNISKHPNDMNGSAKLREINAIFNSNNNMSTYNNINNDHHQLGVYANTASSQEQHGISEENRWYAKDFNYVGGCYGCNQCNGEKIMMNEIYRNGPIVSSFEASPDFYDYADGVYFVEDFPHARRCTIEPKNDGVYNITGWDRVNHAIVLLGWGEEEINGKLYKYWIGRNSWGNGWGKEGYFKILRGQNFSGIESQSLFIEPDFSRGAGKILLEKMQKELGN

Compound	% Inhibition @ 10 uM
Cc1ccc(/N=C(/C(=N\c2ccc(C)cc2)N2CCOCC2)N2CCOCC2)cc1	2.68%
CC(=O)Nc1ccc(NC(=O)C23CC4CC(C2)CC(n2cnc(Br)n2)(C4)C3)cc1	2.44%
CC12CN3CC(C)(CN(C1)C3c1ccccc1Cl)C2 (stereo not drawn)	-3.64%
Cc1ccc(N(C)C)cc1NC(=O)COc1ccc(Cl)cc1	-5.65%
CN(C)c1cc(-c2ccccc2)nc(-c2ccccc2)n1	-1.48%
CCCCOc1ccc(C2c3c(-c4ccccc4O)n[nH]c3C(=O)N2CCCOC)cc1 (stereo not drawn)	2.02%
FC(F)(F)c1ccc2c(c1)N(CCCN1CCN(C34CC5CC(CC(C5)C3)C4)CC1)c1ccccc1S2	5.37%
O=C(Nc1cc(Cl)ccc1Cl)c1ccccc1Br	7.72%
Cc1cccc2c3c([nH]c12)C(=O)CC(C)(C)S3	-1.51%
CCC1=C(c2ccc(C)cc2)S(=O)(=O)N=C1N1CCC(C(=O)NCC(C)c2ccccc2)CC1 (stereo not drawn)	1.63%
CN(Cc1ccccc1)C(=O)c1ccc(N(C)S(C)(=O)=O)cc1	0.964%
CC(=O)C(=CNc1cc(-c2ccccc2)nn1-c1ccccc1)C(C)=O	-2.8%
COc1ccc(-c2nnc3n(Cc4ccc(F)cc4)c(=O)c4ccccc4n23)c(OC)c1OC	-1.72%
COc1ccc(C(=O)NCC2(c3ccccc3)CCOCC2)c(OC)c1	-1.68%
O=C(NCc1cccnc1)c1ccc(-n2nc(C(F)(F)F)c3c2CCCC3)cc1	8.95%
CCNc1nc(SCCOc2ccccc2)nc(N(C)C)n1	-6.18% and -6.02%
COc1ccc(CCNC(=O)Cn2c(SCc3ccc(F)cc3)nc3ncccc32)cc1OC	3.3%
COc1cc(C(=O)N2CCC3(CC2)N=C(c2ccc(Cl)cc2)C(=O)N3)cc(OC)c1OC	8.11%
O=C(O)c1ccc(S(=O)(=O)NCC2CCCCC2)cc1	-0.551%
CC1=NC(C)(C)Cc2cc(C)c(C)cc21	2.38%
O=C(Nc1cccc2cccnc12)c1ccccc1Cl	-0.425%

Compound	% Inhibition @ 10 uM
Oc1ccccc1C1=NN2C(C1)c1ccccc1OC2c1cccc(F)c1 (stereo not drawn)	-1.68%
COc1c2ccccc2c(OC)c2ccccc12	1.12%
CCOc1ccc(CCNC(=O)C(C)n2nc(C)c3c(C)n(-c4ccccc4)nc3c2=O)cc1 (stereo not drawn)	-2.49%
COc1ccc(/C(=N\C(=S)Nc2ccc(C)cc2)NCS(=O)(=O)c2ccc(C)cc2)cc1	-2.59%
O=C1c2cccc3cccc(c23)C(=O)N1C(c1ccccc1)c1ccccc1	-0.143%
O=C(c1ccc(Br)o1)N1CCN(c2ccc3nnc(-c4ccccc4)n3n2)CC1	-1.37%
Cn1nc(C(=O)NCc2cccc(Cl)c2)c2c1-c1ccccc1OC2	-9.28%
CCO/C(O)=C1/C(C)=Nc2nc(SCC)nn2C1c1ccc(OC)cc1 (stereo not drawn)	6.07%
COc1cccc(OC)c1C(=O)Nc1nc(C)c(C(C)=O)s1	0.0265%
C[C@@H](C[C@H](NC(=O)OCc1ccccc1)C(=O)NCC#N)c1ccccc1OC(F)(F)F	1.61%
CCOc1cccc2c1OC1(C)CC2/C(=C(\C)O)C(=O)N1 (stereo not drawn)	4.27%
Cc1ccc2c(c1)-c1onc(C(=O)Nc3nccs3)c1CO2	0.589%
CC(C)(C)/N=S1\OC(c2ccccc2)c2ccccc21 (stereo not drawn)	0.163%
O=C(O)c1ccc(CNCCc2ccc(Cl)cc2)s1	-0.637%
COc1ccc(-c2nc(CS(=O)(=O)CC(=O)NCCCOC(C)C)c(C)o2)cc1	-0.138%
O=S(=O)(c1ccc(Cl)nc1)N(c1ccccc1)c1ccccc1	1.59%
Cc1cccc2sc(NC(=O)CCNS(=O)(=O)c3cccc4nonc34)nc12	2.84%
CCOc1cccc(C2C3=C(O)CCCC3=NC(C)=C2C(=O)Nc2ccccc2OC)c1 (stereo not drawn)	-1.64%
COc1ccc(C2=NS(=O)(=O)N(C)C(C(=O)Nc3ccn(Cc4ccc(C)cc4)n3)=C2)cc1	3.92%
COc1cccc(C2CC(=O)Nc3cc(C)c(C)cc32)c1 (stereo not drawn)	-3.72%
CCOC(=O)N(Cc1ccc(Cl)cc1)C(=O)CC#N	0.408%

Compound	% Inhibition @ 10 uM
Cc1ccc(C(=O)NCc2cn3c(C)csc3n2)cc1	-2.45%
Cc1cc(-c2ccccc2)c2c3c(cn2n1)c(=O)n(C)c(=O)n3C	-5.63%
CCOC(=O)c1c(-c2ccc(Cl)cc2)csc1N	10.9%
CCOC(=O)c1c(-c2ccccc2)csc1NC(=O)c1cc(C)on1	4.12%
CC(NC(=O)c1nn(C)c2c1CS(=O)(=O)c1ccccc1-2)c1ccccc1 (stereo not drawn)	1.51%
CCOc1ccc(CCNC(=O)Cn2ccc3cc(S(=O)(=O)N4CCCC4)ccc32)cc1	-8.25%
CCOc1ccc(C2C(C(=O)c3ccc(C)cc3)=C(O)C(=O)N2CCCC(=O)O)cc1 (stereo not drawn)	-3.75%
NC(=S)N/N=C1/CCCCC1c1ccccn1 (stereo not drawn)	7.75%
CCCCNC(=O)C(CC)n1ccc2cc(S(=O)(=O)N3CCCCC3)ccc21 (stereo not drawn)	6.58%
CC(C)(C)C1=Nn2c(nnc2-c2ccccc2)SC1	1.74%
CCN(CCN(C)C)Cc1ccc(Cl)cc1Cl	-5.94%
Cc1cccc(C(=O)Nc2cc(C)ccn2)c1	-5.34%
COc1ccc(-c2noc(-c3ccc(OC)cc3)n2)cc1	1.72%
O=P1(O)c2ccccc2Nc2ccccc21	0.878%
Cn1c2ccccc2c2nn3c(SCc4ccccc4)nnc3nc21	-1.18%
O=C(Cn1cc(SCc2ccccc2)c2ccccc21)N1CCOCC1	-4.93%
Cc1ccccc1C(=O)Nc1sc2c(c1C(=O)O)CCCC2	0.0792%
CC(C)CNS(=O)(=O)c1ccc(CCC(=O)Nc2ccccc2F)cc1	-4.68%
CC(=O)Nc1ccc(NC(=O)CN(c2ccc(C)cc2)S(=O)(=O)c2ccc(F)cc2)cc1	0.245%
O=C(Cn1c(=O)c2cccn2c2cccnc21)NCCCN1CCCC1=O	-4.16%
Cc1ccc(CNC(=O)c2cc(O)nc3ccc(S(=O)(=O)N4CCOCC4)cc23)cc1	-3.36%

Source: publication PMC6919601, “Identification of Plasmodium dipeptidyl aminopeptidase allosteric inhibitors by high throughput screening” (PLoS ONE, 2019)
